From the supplement of paper PMC8728848
Some of the results follow.

Experiments:
Assay in all cases: glycan array binding signal (z-score within array); higher = stronger binding
Details in all cases: glycan notation: IUPAC condensed, linker removed
[1] = molecular target: GlcNAc(b1-4)GlcNAc(b1-4)GlcNAc(b1-4)GlcNAc(b1-4)GlcNAc(b1-4)GlcNAc
Method in brief: (§1)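 Glycan array data were curated from 3228 arrays in the Consortium for Functional Glycomics database and kept only where the protein sequence was available. Glycan names were converted to IUPAC-condensed notation, and columns mapping to the same glycan were averaged. The binding signal is a within-array Z-score, averaged across arrays of the same protein sequence at different concentrations or buffers and across linkers. Negative Z-scores can be read as non-binding.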

[2] = molecular target: GlcNAc(b1-4)[GlcNAc(b1-6)]GalNAc
Method in brief: as §1

[3] = molecular target: GlcNAc(b1-6)Gal(b1-4)GlcNAc
Method in brief: as §1

[4] = molecular target: GlcNAc(b1-6)GalNAc
Method in brief: as §1

[5] = molecular target: GlcNAc6S(b1-3)Gal(b1-4)GlcNAc
Method in brief: as §1

[6] = molecular target: Kdn(a2-3)Gal(b1-3)GalNAc
Method in brief: as §1

[7] = molecular target: Kdn(a2-3)Gal(b1-3)GlcNAc
Method in brief: as §1

[8] = molecular target: Kdn(a2-3)Gal(b1-4)Glc
Method in brief: as §1

[9] = molecular target: Kdn(a2-3)Gal(b1-4)GlcNAc
Method in brief: as §1

[10] = molecular target: Kdn(a2-3)Gal(b1-4)[Fuc(a1-3)]GlcNAc
Method in brief: as §1

[11] = molecular target: Kdn(a2-6)Gal(b1-4)GlcNAc
Method in brief: as §1

[12] = molecular target: Man(a1-2)Man(a1-2)Man(a1-3)Man
Method in brief: as §1

[13] = molecular target: Man(a1-2)Man(a1-2)Man(a1-6)[Man(a1-3)]Man
Method in brief: as §1

[14] = molecular target: Man(a1-2)Man(a1-3)Man
Method in brief: as §1

[15] = molecular target: Man(a1-2)Man(a1-3)[Man(a1-2)Man(a1-6)]Man
Method in brief: as §1

[16] = molecular target: Man(a1-2)Man(a1-3)[Man(a1-2)Man(a1-6)]Man(a1-6)[Man(a1-2)Man(a1-2)Man(a1-3)]Man
Method in brief: as §1

[17] = molecular target: Man(a1-2)Man(a1-3)[Man(a1-2)Man(a1-6)]Man(a1-6)[Man(a1-2)Man(a1-2)Man(a1-3)]Man(b1-4)GlcNAc(b1-4)GlcNAc
Method in brief: as §1

[18] = molecular target: Man(a1-2)Man(a1-3)[Man(a1-6)]Man(a1-6)[Man(a1-2)Man(a1-3)]Man(b1-4)GlcNAc(b1-4)GlcNAc
Method in brief: as §1

[19] = molecular target: Man(a1-2)Man(a1-6)[Man(a1-3)]Man(a1-6)[Man(a1-2)Man(a1-2)Man(a1-3)]Man
Method in brief: as §1

[20] = molecular target: Man(a1-2)Man(a1-6)[Man(a1-3)]Man(a1-6)[Man(a1-2)Man(a1-2)Man(a1-3)]Man(b1-4)GlcNAc(b1-4)GlcNAc
Method in brief: as §1

[21] = molecular target: Man(a1-3)[Man(a1-6)]Man
Method in brief: as §1

[22] = molecular target: Man(a1-3)[Man(a1-6)]Man(a1-6)[Man(a1-2)Man(a1-3)]Man(b1-4)GlcNAc(b1-4)GlcNAc
Method in brief: as §1

[23] = molecular target: Man(a1-3)[Man(a1-6)]Man(a1-6)[Man(a1-3)]Man
Method in brief: as §1

[24] = molecular target: Man(a1-3)[Man(a1-6)]Man(a1-6)[Man(a1-3)]Man(b1-4)GlcNAc(b1-4)GlcNAc
Method in brief: as §1

[25] = molecular target: Man(a1-3)[Man(a1-6)]Man(b1-4)GlcNAc(b1-4)GlcNAc
Method in brief: as §1

[26] = molecular target: Man(a1-3)[Man(a1-6)]Man(b1-4)GlcNAc(b1-4)[Fuc(a1-6)]GlcNAc
Method in brief: as §1

[27] = molecular target: Man(a1-6)Man
Method in brief: as §1

[28] = molecular target: Man(b1-4)GlcNAc
Method in brief: as §1

[29] = molecular target: MurNAc(b1-4)GlcNAc
Method in brief: as §1

[30] = molecular target: Neu5Ac(a2-3)Gal
Method in brief: as §1

[31] = molecular target: Neu5Ac(a2-3)Gal(b1-3)GalNAc
Method in brief: as §1

[32] = molecular target: Neu5Ac(a2-3)Gal(b1-3)GalNAc(b1-3)Gal(a1-4)Gal(b1-4)Glc
Method in brief: as §1

[33] = molecular target: Neu5Ac(a2-3)Gal(b1-3)GalNAc(b1-4)[Neu5Ac(a2-3)]Gal(b1-4)Glc
Method in brief: as §1

[34] = molecular target: Neu5Ac(a2-3)Gal(b1-3)GalNAc(b1-4)[Neu5Ac(a2-8)Neu5Ac(a2-3)]Gal(b1-4)Glc
Method in brief: as §1

[35] = molecular target: Neu5Ac(a2-3)Gal(b1-3)GalNAc6S
Method in brief: as §1

[36] = molecular target: Neu5Ac(a2-3)Gal(b1-3)GlcNAc
Method in brief: as §1

[37] = molecular target: Neu5Ac(a2-3)Gal(b1-3)GlcNAc(b1-2)Man
Method in brief: as §1

[38] = molecular target: Neu5Ac(a2-3)Gal(b1-3)GlcNAc(b1-2)Man(a1-3)[GlcNAc(b1-4)][Neu5Ac(a2-3)Gal(b1-3)GlcNAc(b1-2)Man(a1-6)]Man(b1-4)GlcNAc(b1-4)GlcNAc
Method in brief: as §1

[39] = molecular target: Neu5Ac(a2-3)Gal(b1-3)GlcNAc(b1-2)Man(a1-3)[Neu5Ac(a2-3)Gal(b1-3)GlcNAc(b1-2)Man(a1-6)]Man(b1-4)GlcNAc(b1-4)GlcNAc
Method in brief: as §1

[40] = molecular target: Neu5Ac(a2-3)Gal(b1-3)GlcNAc(b1-3)Gal(b1-3)GlcNAc
Method in brief: as §1

[41] = molecular target: Neu5Ac(a2-3)Gal(b1-3)GlcNAc(b1-3)Gal(b1-4)GlcNAc
Method in brief: as §1

[42] = molecular target: Neu5Ac(a2-3)Gal(b1-3)GlcNAc(b1-3)GalNAc
Method in brief: as §1

[43] = molecular target: Neu5Ac(a2-3)Gal(b1-3)GlcNAc(b1-4)Gal(b1-4)Glc
Method in brief: as §1

[44] = molecular target: Neu5Ac(a2-3)Gal(b1-3)GlcNAc(b1-6)GalNAc
Method in brief: as §1

[45] = molecular target: Neu5Ac(a2-3)Gal(b1-3)GlcNAc6S
Method in brief: as §1

B1: Langerin K313I (Homo sapiens), Q9UJ71 (protein)
chain: STLNAQIPELKSDLEKASALNTKIRALQGSLENMSKLLKRQNDILQVVSQGWKYFKGNFYYFSLIPKTWYSAEQFCVSRNSHLTSVTSESEQEFLYKTAGGLIYWIGLTKAGMEGDWSWVDDTPFNKVQSARFWIPGEPNNAGNNEHCGNIKAPSLQAWNDAPCDITFLFICKRPYVPSEP
glycan array binding signal (z-score) [1]: -0.281
glycan array binding signal (z-score) [2]: 0.45
glycan array binding signal (z-score) [3]: -0.119
glycan array binding signal (z-score) [4]: -0.215
glycan array binding signal (z-score) [5]: -0.216
glycan array binding signal (z-score) [6]: 0.361
glycan array binding signal (z-score) [7]: -0.216
glycan array binding signal (z-score) [8]: -0.251
glycan array binding signal (z-score) [9]: -0.205
glycan array binding signal (z-score) [10]: 0.563
glycan array binding signal (z-score) [11]: -0.33
glycan array binding signal (z-score) [12]: -0.234
glycan array binding signal (z-score) [13]: 7.95
glycan array binding signal (z-score) [14]: -0.261
glycan array binding signal (z-score) [15]: -0.303
glycan array binding signal (z-score) [16]: 3.54
glycan array binding signal (z-score) [17]: -0.289
glycan array binding signal (z-score) [18]: -0.194
glycan array binding signal (z-score) [19]: 2.17
glycan array binding signal (z-score) [20]: 0.146
glycan array binding signal (z-score) [21]: -0.094
glycan array binding signal (z-score) [22]: -0.188
glycan array binding signal (z-score) [23]: -0.173
glycan array binding signal (z-score) [24]: -0.155
glycan array binding signal (z-score) [25]: -0.323
glycan array binding signal (z-score) [26]: -0.036
glycan array binding signal (z-score) [27]: -0.121
glycan array binding signal (z-score) [28]: -0.24
glycan array binding signal (z-score) [29]: -0.377
glycan array binding signal (z-score) [30]: -0.302
glycan array binding signal (z-score) [31]: -0.279
glycan array binding signal (z-score) [32]: -0.307
glycan array binding signal (z-score) [33]: -0.29
glycan array binding signal (z-score) [34]: -0.134
glycan array binding signal (z-score) [35]: -0.352
glycan array binding signal (z-score) [36]: -0.339
glycan array binding signal (z-score) [37]: 0.248
glycan array binding signal (z-score) [38]: -0.131
glycan array binding signal (z-score) [39]: 0.123
glycan array binding signal (z-score) [40]: -0.309
glycan array binding signal (z-score) [41]: -0.387
glycan array binding signal (z-score) [42]: -0.261
glycan array binding signal (z-score) [43]: -0.191
glycan array binding signal (z-score) [44]: 0.005
glycan array binding signal (z-score) [45]: -0.361
